# Source: PubChem BioAssay AID1468 (National Center for Advancing Translational Sciences (NCATS), 2008)
# The whole screen tested about 280,000 compounds, of which about 1,100 (0.39%) were called active. Inconclusive means that the source gave no clear call. Such entries were picked first, then a sample of the others. Calls come from the whole dose curve; as a rule, active = well fitted inhibition curve with a large enough effect; inconclusive = small, poorly fitted or top-dose-only effect, or effect the other way; inactive = flat fitted curve, though single readings scatter. Potencies of inconclusive entries are left out as doubtful fits.
# Target: Microtubule-associated protein tau (Homo sapiens) (UniProt P10636)
# Assay: qHTS for Inhibitors of Tau Fibril Formation, Fluorescence Polarization; note: nearly all actives have a fitted effect of over 55% in size
# Details: K18 P301L tau heparin fibrillization, Alexa594 FP, 6 h; series mostly up to 57.7 µM
# In short: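 Human tau K18 […] P301L fragment, 15 uM unlabeled plus 0.24 uM Alexa 594-labeled tau (final), with compound and 20 uM heparin in 100 mM sodium acetate pH 7; 6 hr at 37 C, then Alexa 594 FP read.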
# Potency is the fitted concentration of half-maximal effect; tags give direction and shape of the fitted curve.
# Sequence of UniProt P10636 (P10636 whole entry, looked up): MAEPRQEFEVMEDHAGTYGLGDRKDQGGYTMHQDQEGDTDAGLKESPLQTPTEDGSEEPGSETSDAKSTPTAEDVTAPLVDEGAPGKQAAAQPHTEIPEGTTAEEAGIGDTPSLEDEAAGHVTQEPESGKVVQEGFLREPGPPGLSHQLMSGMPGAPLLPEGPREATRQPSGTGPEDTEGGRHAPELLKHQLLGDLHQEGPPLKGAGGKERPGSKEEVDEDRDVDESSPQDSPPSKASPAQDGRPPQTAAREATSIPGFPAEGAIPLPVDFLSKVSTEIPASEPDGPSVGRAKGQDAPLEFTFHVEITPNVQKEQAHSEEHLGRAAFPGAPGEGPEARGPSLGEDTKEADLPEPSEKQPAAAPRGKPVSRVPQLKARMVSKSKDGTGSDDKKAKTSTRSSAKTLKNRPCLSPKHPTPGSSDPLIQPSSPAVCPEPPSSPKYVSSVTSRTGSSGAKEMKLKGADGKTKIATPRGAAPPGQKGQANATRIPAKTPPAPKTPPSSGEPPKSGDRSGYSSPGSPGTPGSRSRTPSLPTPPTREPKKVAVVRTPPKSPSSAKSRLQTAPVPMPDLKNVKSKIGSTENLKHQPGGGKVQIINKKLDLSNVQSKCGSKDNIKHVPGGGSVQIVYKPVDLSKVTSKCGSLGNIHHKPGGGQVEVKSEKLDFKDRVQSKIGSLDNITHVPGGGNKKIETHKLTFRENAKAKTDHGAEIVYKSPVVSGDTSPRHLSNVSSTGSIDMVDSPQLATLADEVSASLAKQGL
row,SMILES,Potency
1,Cc1ccc(C)c(Nc2nc3c(S(=O)(=O)c4ccc(Br)cc4)nnn3c3ccsc23)c1,"inconclusive [activator, partial curve]"
2,COc1ccc(C(=O)NCC(=O)OCC(=O)Nc2cccc(S(=O)(=O)N3CCCC3)c2)cc1,"inconclusive [inhibitor, partial curve]"
3,Cc1cccc(-n2nnnc2-c2cnccc2C(F)(F)F)c1C,inactive
4,Cc1ccc(S(=O)(=O)c2nc(-c3ccc(F)cc3)oc2SCC(=O)c2ccccc2)cc1,"inconclusive [inhibitor, partial curve, poor fit]"
5,N#C/C(=C/c1ccc(N2CCCCC2)o1)c1cccc(F)c1,"inconclusive [inhibitor, partial curve, poor fit]"
6,O=CN/N=C/c1c(O)ccc2ccccc12,inactive
7,COCCNc1nc(-c2ccccc2)nc2c1oc1ccccc12,"inconclusive [inhibitor, partial curve]"
8,CCN(CC)C(=S)SCC(=O)Nc1nc(=O)c2ccccc2s1,"inconclusive [inhibitor, single point]"
9,CCOc1ccc(CNC(=O)c2cc3c(s2)-c2ccccc2OC3)cc1,"inconclusive [inhibitor, partial curve, poor fit]"
10,Clc1cccc(Cl)c1CNc1ccc(N2CCCC2)cc1,"inconclusive [inhibitor, partial curve]"
11,COc1cccc(NC(=S)NCCN2CCOCC2)c1,inactive
12,C#CCCCO/N=C1/C[C@@H](O)[C@@H](O)[C@@H]2[C@@H]3C(=O)N(CCC(=O)OCC)C(=O)[C@H]3CC[C@H]12,"inconclusive [inhibitor, single point]"
13,COc1cccc(N2C(=O)CSC23C(=O)N(CC(=O)Nc2cccc(Cl)c2)c2ccccc23)c1 (configuration not stated),"inconclusive [inhibitor, single point]"
14,Cn1c(SCC(=O)c2ccc3c(c2)OCO3)nnc1C1COc2ccccc2O1 (configuration not stated),"inconclusive [inhibitor, single point]"
15,CCOC(=O)c1ccc(N2C(=O)c3n[nH]c(-c4cccs4)c3C2c2cccc(OC)c2)cc1 (configuration not stated),"inconclusive [inhibitor, partial curve]"
16,O=C(/C=C/c1ccccc1)c1ccc(O)cc1O,"inconclusive [inhibitor, single point]"
17,O=S(=O)(c1ccc(Cl)cc1)c1nnn2c1nc(NCc1cccs1)c1sccc12,"inconclusive [inhibitor, partial curve]"
